# Assay results: paper PMC12820563, “FoxP3 forms a head-to-head dimer in vivo and stabilizes its multimerization on adjacent microsatellites”
# The other results are listed elsewhere or left out.
# Target: T1, MBP-FoxP1dN (Mus musculus, UniProt P58462 326-579)
# T1 sequence: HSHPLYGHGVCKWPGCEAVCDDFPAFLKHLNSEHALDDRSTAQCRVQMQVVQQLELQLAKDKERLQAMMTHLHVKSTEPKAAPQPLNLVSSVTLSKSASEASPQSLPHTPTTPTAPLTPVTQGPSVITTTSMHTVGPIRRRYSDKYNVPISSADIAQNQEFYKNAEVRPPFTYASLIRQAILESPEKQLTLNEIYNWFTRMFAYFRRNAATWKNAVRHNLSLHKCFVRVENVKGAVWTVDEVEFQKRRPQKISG
# Assay: PD-seq (MBP pull-down with sequencing); 20 mM Tris-HCl pH 7.5, 100 mM NaCl, 1.5 mM MgCl2, 0.4 uM protein, 0.1 uM dsDNA library, 30 min, room temperature, amylose pull-down; high values mean tight binding
# Settings: protein: recombinant; tags: His6-MBP; chain copies: 2; dsDNA, one strand shown
# Outline: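 E. coli-expressed mouse FoxP3 or FoxP1 fragment, N-terminus removed and tagged with His6-MBP, was used at 0.4 µM against 0.1 µM of a Klenow-filled degenerate double-stranded DNA library. After 30 min at room temperature in Tris pH 7.5 buffer with NaCl and MgCl2, complexes were pulled down on amylose resin and washed three times. Binding is pull-down over input reads-per-million enrichment from pooled replicates of the proteinase K-released, PCR-barcoded, Illumina-sequenced DNA.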
row,Sequence,binding signal
1,GATGATTGTTCTCCCAGCTGATGAATTCCTAGTCTCGAGTAAACAAATTTTCCTAATCTTTCTGTTCAAGCGCCATCTAC,0.762 RPM ratio (pull-down/input)
2,GATGATTGTTCTCCCAGCTGATGAATTGTAGATTTCGAGTAAACAAATTTTCCTAATCTTTCTGTTCAAGCGCCATCTAC,1.01 RPM ratio (pull-down/input)
3,GATGATTGTTCTCCCAGCTGATGAATTACCACGTTCGAGTAAACAAATTTTCCTAATCTTTCTGTTCAAGCGCCATCTAC,1.02 RPM ratio (pull-down/input)
4,GATGATTGTTCTCCCAGCTGATGAATTCGGAGCTTCGAGTAAACAAATTTTCCTAATCTTTCTGTTCAAGCGCCATCTAC,0.821 RPM ratio (pull-down/input)
5,GATGATTGTTCTCCCAGCTGATGAATTCTCGAATTCGAGTAAACAAATTTTCCTAATCTTTCTGTTCAAGCGCCATCTAC,0.917 RPM ratio (pull-down/input)
6,GATGATTGTTCTCCCAGCTGATGAATTGTCTCGCTCGAGTAAACAAATTTTCCTAATCTTTCTGTTCAAGCGCCATCTAC,0.914 RPM ratio (pull-down/input)
7,GATGATTGTTCTCCCAGCTGATGAATTGTAGTGGTCGAGTAAACAAATTTTCCTAATCTTTCTGTTCAAGCGCCATCTAC,1.12 RPM ratio (pull-down/input)
8,GATGATTGTTCTCCCAGCTGATGAATTTTTATCATCGAGTAAACAAATTTTCCTAATCTTTCTGTTCAAGCGCCATCTAC,1.36 RPM ratio (pull-down/input)
9,GATGATTGTTCTCCCAGCTGATGAATTACAAACATCGAGTAAACAAATTTTCCTAATCTTTCTGTTCAAGCGCCATCTAC,2.67 RPM ratio (pull-down/input)
10,GATGATTGTTCTCCCAGCTGATGAATTTTCGGAGTCGAGTAAACAAATTTTCCTAATCTTTCTGTTCAAGCGCCATCTAC,0.904 RPM ratio (pull-down/input)
11,GATGATTGTTCTCCCAGCTGATGAATTCTACGACTCGAGTAAACAAATTTTCCTAATCTTTCTGTTCAAGCGCCATCTAC,0.859 RPM ratio (pull-down/input)
12,GATGATTGTTCTCCCAGCTGATGAATTGTAATCGTCGAGTAAACAAATTTTCCTAATCTTTCTGTTCAAGCGCCATCTAC,1.18 RPM ratio (pull-down/input)
13,GATGATTGTTCTCCCAGCTGATGAATTACGAACATCGAGTAAACAAATTTTCCTAATCTTTCTGTTCAAGCGCCATCTAC,1.27 RPM ratio (pull-down/input)
14,GATGATTGTTCTCCCAGCTGATGAATTTTGGAGCTCGAGTAAACAAATTTTCCTAATCTTTCTGTTCAAGCGCCATCTAC,0.768 RPM ratio (pull-down/input)
15,GATGATTGTTCTCCCAGCTGATGAATTCCCTCAGTCGAGTAAACAAATTTTCCTAATCTTTCTGTTCAAGCGCCATCTAC,0.82 RPM ratio (pull-down/input)
16,GATGATTGTTCTCCCAGCTGATGAATTCTATCAGTCGAGTAAACAAATTTTCCTAATCTTTCTGTTCAAGCGCCATCTAC,0.867 RPM ratio (pull-down/input)
17,GATGATTGTTCTCCCAGCTGATGAATTTAAGCTATCGAGTAAACAAATTTTCCTAATCTTTCTGTTCAAGCGCCATCTAC,0.877 RPM ratio (pull-down/input)
18,GATGATTGTTCTCCCAGCTGATGAATTCGTGCCTTCGAGTAAACAAATTTTCCTAATCTTTCTGTTCAAGCGCCATCTAC,0.882 RPM ratio (pull-down/input)
19,GATGATTGTTCTCCCAGCTGATGAATTTACCGCTTCGAGTAAACAAATTTTCCTAATCTTTCTGTTCAAGCGCCATCTAC,1.14 RPM ratio (pull-down/input)
20,GATGATTGTTCTCCCAGCTGATGAATTCCTGAAATCGAGTAAACAAATTTTCCTAATCTTTCTGTTCAAGCGCCATCTAC,0.973 RPM ratio (pull-down/input)
21,GATGATTGTTCTCCCAGCTGATGAATTCAGGACGTCGAGTAAACAAATTTTCCTAATCTTTCTGTTCAAGCGCCATCTAC,0.801 RPM ratio (pull-down/input)

row,Sequence,binding signal
1,GATGATTGTTCTCCCAGCTGATGAATTACGTCAATCGAGTAAACAAATTTTCCTAATCTTTCTGTTCAAGCGCCATCTAC,1.26 RPM ratio (pull-down/input)
2,GATGATTGTTCTCCCAGCTGATGAATTAAGTGCCTCGAGTAAACAAATTTTCCTAATCTTTCTGTTCAAGCGCCATCTAC,0.989 RPM ratio (pull-down/input)
3,GATGATTGTTCTCCCAGCTGATGAATTCTTCCTGTCGAGTAAACAAATTTTCCTAATCTTTCTGTTCAAGCGCCATCTAC,0.782 RPM ratio (pull-down/input)
4,GATGATTGTTCTCCCAGCTGATGAATTATTGCACTCGAGTAAACAAATTTTCCTAATCTTTCTGTTCAAGCGCCATCTAC,1.2 RPM ratio (pull-down/input)
5,GATGATTGTTCTCCCAGCTGATGAATTAGATAGATCGAGTAAACAAATTTTCCTAATCTTTCTGTTCAAGCGCCATCTAC,0.882 RPM ratio (pull-down/input)
6,GATGATTGTTCTCCCAGCTGATGAATTGCAACAGTCGAGTAAACAAATTTTCCTAATCTTTCTGTTCAAGCGCCATCTAC,1.42 RPM ratio (pull-down/input)
7,GATGATTGTTCTCCCAGCTGATGAATTTAGAACATCGAGTAAACAAATTTTCCTAATCTTTCTGTTCAAGCGCCATCTAC,1.2 RPM ratio (pull-down/input)
8,GATGATTGTTCTCCCAGCTGATGAATTTCGAGTTTCGAGTAAACAAATTTTCCTAATCTTTCTGTTCAAGCGCCATCTAC,0.851 RPM ratio (pull-down/input)
9,GATGATTGTTCTCCCAGCTGATGAATTAAGCTTCTCGAGTAAACAAATTTTCCTAATCTTTCTGTTCAAGCGCCATCTAC,0.873 RPM ratio (pull-down/input)
10,GATGATTGTTCTCCCAGCTGATGAATTACTCGAATCGAGTAAACAAATTTTCCTAATCTTTCTGTTCAAGCGCCATCTAC,1.11 RPM ratio (pull-down/input)
11,GATGATTGTTCTCCCAGCTGATGAATTCGACTCCTCGAGTAAACAAATTTTCCTAATCTTTCTGTTCAAGCGCCATCTAC,0.808 RPM ratio (pull-down/input)
12,GATGATTGTTCTCCCAGCTGATGAATTACCCGTGTCGAGTAAACAAATTTTCCTAATCTTTCTGTTCAAGCGCCATCTAC,0.918 RPM ratio (pull-down/input)
13,GATGATTGTTCTCCCAGCTGATGAATTCGACATGTCGAGTAAACAAATTTTCCTAATCTTTCTGTTCAAGCGCCATCTAC,0.897 RPM ratio (pull-down/input)
14,GATGATTGTTCTCCCAGCTGATGAATTACCCATATCGAGTAAACAAATTTTCCTAATCTTTCTGTTCAAGCGCCATCTAC,1.07 RPM ratio (pull-down/input)
15,GATGATTGTTCTCCCAGCTGATGAATTAGCGCCATCGAGTAAACAAATTTTCCTAATCTTTCTGTTCAAGCGCCATCTAC,0.972 RPM ratio (pull-down/input)
16,GATGATTGTTCTCCCAGCTGATGAATTAAAACGTTCGAGTAAACAAATTTTCCTAATCTTTCTGTTCAAGCGCCATCTAC,1.01 RPM ratio (pull-down/input)
17,GATGATTGTTCTCCCAGCTGATGAATTGTACCAGTCGAGTAAACAAATTTTCCTAATCTTTCTGTTCAAGCGCCATCTAC,0.896 RPM ratio (pull-down/input)
18,GATGATTGTTCTCCCAGCTGATGAATTTTCTTATTCGAGTAAACAAATTTTCCTAATCTTTCTGTTCAAGCGCCATCTAC,0.953 RPM ratio (pull-down/input)
19,GATGATTGTTCTCCCAGCTGATGAATTAGCCGAGTCGAGTAAACAAATTTTCCTAATCTTTCTGTTCAAGCGCCATCTAC,0.838 RPM ratio (pull-down/input)
20,GATGATTGTTCTCCCAGCTGATGAATTCCGACCCTCGAGTAAACAAATTTTCCTAATCTTTCTGTTCAAGCGCCATCTAC,0.728 RPM ratio (pull-down/input)
21,GATGATTGTTCTCCCAGCTGATGAATTGCGCGTATCGAGTAAACAAATTTTCCTAATCTTTCTGTTCAAGCGCCATCTAC,1.14 RPM ratio (pull-down/input)

row,Sequence,binding signal
1,GATGATTGTTCTCCCAGCTGATGAATTCACCTGCTCGAGTAAACAAATTTTCCTAATCTTTCTGTTCAAGCGCCATCTAC,0.83 RPM ratio (pull-down/input)
2,GATGATTGTTCTCCCAGCTGATGAATTGTGCTGCTCGAGTAAACAAATTTTCCTAATCTTTCTGTTCAAGCGCCATCTAC,0.988 RPM ratio (pull-down/input)
3,GATGATTGTTCTCCCAGCTGATGAATTGATTCGATCGAGTAAACAAATTTTCCTAATCTTTCTGTTCAAGCGCCATCTAC,0.994 RPM ratio (pull-down/input)
4,GATGATTGTTCTCCCAGCTGATGAATTATCCCAATCGAGTAAACAAATTTTCCTAATCTTTCTGTTCAAGCGCCATCTAC,1.02 RPM ratio (pull-down/input)
5,GATGATTGTTCTCCCAGCTGATGAATTGCTTCTGTCGAGTAAACAAATTTTCCTAATCTTTCTGTTCAAGCGCCATCTAC,0.961 RPM ratio (pull-down/input)
6,GATGATTGTTCTCCCAGCTGATGAATTATGCCTCTCGAGTAAACAAATTTTCCTAATCTTTCTGTTCAAGCGCCATCTAC,0.997 RPM ratio (pull-down/input)
7,GATGATTGTTCTCCCAGCTGATGAATTCGGGGAATCGAGTAAACAAATTTTCCTAATCTTTCTGTTCAAGCGCCATCTAC,0.94 RPM ratio (pull-down/input)
8,GATGATTGTTCTCCCAGCTGATGAATTAAGTTGCTCGAGTAAACAAATTTTCCTAATCTTTCTGTTCAAGCGCCATCTAC,1.09 RPM ratio (pull-down/input)
9,GATGATTGTTCTCCCAGCTGATGAATTGTTACGGTCGAGTAAACAAATTTTCCTAATCTTTCTGTTCAAGCGCCATCTAC,1.15 RPM ratio (pull-down/input)
10,GATGATTGTTCTCCCAGCTGATGAATTTCCTAAATCGAGTAAACAAATTTTCCTAATCTTTCTGTTCAAGCGCCATCTAC,1.05 RPM ratio (pull-down/input)
11,GATGATTGTTCTCCCAGCTGATGAATTTCTTGGATCGAGTAAACAAATTTTCCTAATCTTTCTGTTCAAGCGCCATCTAC,0.875 RPM ratio (pull-down/input)
12,GATGATTGTTCTCCCAGCTGATGAATTAAGTACGTCGAGTAAACAAATTTTCCTAATCTTTCTGTTCAAGCGCCATCTAC,0.976 RPM ratio (pull-down/input)
13,GATGATTGTTCTCCCAGCTGATGAATTTTGATGCTCGAGTAAACAAATTTTCCTAATCTTTCTGTTCAAGCGCCATCTAC,1.28 RPM ratio (pull-down/input)
14,GATGATTGTTCTCCCAGCTGATGAATTGAGGCAATCGAGTAAACAAATTTTCCTAATCTTTCTGTTCAAGCGCCATCTAC,1.08 RPM ratio (pull-down/input)
15,GATGATTGTTCTCCCAGCTGATGAATTTATTAATTCGAGTAAACAAATTTTCCTAATCTTTCTGTTCAAGCGCCATCTAC,1.32 RPM ratio (pull-down/input)
16,GATGATTGTTCTCCCAGCTGATGAATTCCGAACTTCGAGTAAACAAATTTTCCTAATCTTTCTGTTCAAGCGCCATCTAC,0.811 RPM ratio (pull-down/input)
17,GATGATTGTTCTCCCAGCTGATGAATTTCAGTGATCGAGTAAACAAATTTTCCTAATCTTTCTGTTCAAGCGCCATCTAC,0.914 RPM ratio (pull-down/input)
18,GATGATTGTTCTCCCAGCTGATGAATTTGCTGCATCGAGTAAACAAATTTTCCTAATCTTTCTGTTCAAGCGCCATCTAC,1.2 RPM ratio (pull-down/input)
19,GATGATTGTTCTCCCAGCTGATGAATTTCAAAGTTCGAGTAAACAAATTTTCCTAATCTTTCTGTTCAAGCGCCATCTAC,0.792 RPM ratio (pull-down/input)
20,GATGATTGTTCTCCCAGCTGATGAATTATGTCTCTCGAGTAAACAAATTTTCCTAATCTTTCTGTTCAAGCGCCATCTAC,1 RPM ratio (pull-down/input)
21,GATGATTGTTCTCCCAGCTGATGAATTGGGGCACTCGAGTAAACAAATTTTCCTAATCTTTCTGTTCAAGCGCCATCTAC,0.856 RPM ratio (pull-down/input)
